# Among all 310,000 compounds or so, about 2,200 (0.71%) showed an effect of 50% or more. Effects have a minus sign here. The list shows a part of the results.
# Target: human ether-à-go-go-related gene (hERG) potassium channel (human, UniProt Q12809)
# Experiment: primary screen, population patch clamp on CHO cells stably expressing hERG
# human ether-à-go-go-related gene (hERG) potassium channel, sequence (Q12809 whole entry, looked up): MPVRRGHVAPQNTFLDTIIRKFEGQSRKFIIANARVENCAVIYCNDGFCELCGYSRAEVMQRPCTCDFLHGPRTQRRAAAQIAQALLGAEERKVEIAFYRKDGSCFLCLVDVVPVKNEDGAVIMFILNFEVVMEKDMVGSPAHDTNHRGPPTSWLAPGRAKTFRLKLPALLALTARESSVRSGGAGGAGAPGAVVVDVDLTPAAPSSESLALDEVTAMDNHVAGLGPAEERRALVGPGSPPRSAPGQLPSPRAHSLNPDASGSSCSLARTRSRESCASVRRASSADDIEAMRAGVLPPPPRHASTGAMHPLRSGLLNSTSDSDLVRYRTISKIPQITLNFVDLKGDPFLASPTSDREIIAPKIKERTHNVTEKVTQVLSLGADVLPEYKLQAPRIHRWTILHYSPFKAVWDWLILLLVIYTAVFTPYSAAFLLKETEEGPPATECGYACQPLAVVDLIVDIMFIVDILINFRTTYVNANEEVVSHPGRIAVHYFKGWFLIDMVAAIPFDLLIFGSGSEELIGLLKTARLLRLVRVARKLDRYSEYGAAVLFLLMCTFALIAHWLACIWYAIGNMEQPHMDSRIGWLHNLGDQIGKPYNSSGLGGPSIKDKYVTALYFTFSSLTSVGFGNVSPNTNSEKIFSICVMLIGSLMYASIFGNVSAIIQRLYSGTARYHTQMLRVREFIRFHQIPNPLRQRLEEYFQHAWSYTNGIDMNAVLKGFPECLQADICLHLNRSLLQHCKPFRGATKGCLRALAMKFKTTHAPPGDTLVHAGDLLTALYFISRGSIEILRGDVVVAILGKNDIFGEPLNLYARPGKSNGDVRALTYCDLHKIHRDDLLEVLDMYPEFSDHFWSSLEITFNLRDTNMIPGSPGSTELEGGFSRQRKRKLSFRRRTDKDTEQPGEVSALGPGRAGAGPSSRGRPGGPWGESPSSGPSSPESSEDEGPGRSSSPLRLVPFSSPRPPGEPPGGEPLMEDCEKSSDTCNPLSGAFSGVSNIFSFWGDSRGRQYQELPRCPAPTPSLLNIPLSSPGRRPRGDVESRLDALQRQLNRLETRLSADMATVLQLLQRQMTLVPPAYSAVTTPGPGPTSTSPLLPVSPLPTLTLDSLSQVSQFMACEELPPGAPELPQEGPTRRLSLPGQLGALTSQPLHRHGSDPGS
row,Compound,"hERG current change (%, negative = inhibition) at 1uM [%]"
1,S=C(NCc1ccco1)Nc1ccccn1,-0.557
2,Cc1ccc(OCc2cc(C(=O)N3CCC(C(O)C(C)C)CC3)no2)cc1C (stereo not shown),5.09
3,N/C(Cc1ccc([N+](=O)[O-])cc1)=N\OC(=O)c1ccccc1F,3.98
4,N#Cc1ccsc1NC(=O)CN1CCOCC1,7.61
5,Cc1ccc(C)c(NS(=O)(=O)c2ccc(OCC(=O)NCc3ccco3)cc2)c1,3.94
6,CN1C(=O)COc2ccc(C(=O)c3ccccc3C(=O)O)cc21,10.5
7,O=C(c1ccco1)N1CCN(C(=O)C2CCCN(S(=O)(=O)Cc3ccccc3)C2)CC1 (stereo not shown),-1.46
8,Cc1ccc(NC(=O)c2sc(N)nc2C)cc1,10.9
9,CCn1c(=N)c(S(=O)(=O)c2ccc(Cl)cc2)cc2c(=O)n3ccccc3nc21,1.43
10,O=C(CN1CC[n+]2c(-c3cccs3)csc21)c1ccc(Br)cc1.[Br-],12.8
11,COc1ccc(NS(=O)(=O)c2ccc3oc(=O)c4[nH]c(=O)c(=O)n(C)c4c3c2)cc1,13
12,O=C(COC(=O)CNC(=O)c1sc2ccccc2c1Cl)Nc1cc(Cl)cc(Cl)c1,1.45
13,COc1ccc(NC(=O)C(CCSC)N2C(=O)c3ccccc3C2=O)cc1 (stereo not shown),5.12
14,Cc1ccc(C2(C)NC(=O)N(CC(=O)N3CCN(C(=O)c4cccs4)CC3)C2=O)cc1 (stereo not shown),10.5
15,CCOC(=O)c1cc2c(C(F)(F)F)cc(-c3ccccc3)nc2o1,11.4
16,O=C(NCc1ccccc1)c1ccc(-c2ccc(F)cc2)o1,-1.45
17,Cc1ccc(S(=O)(=O)N/N=C/c2c[nH]c3ccccc23)cc1,4.47
18,CC(=O)OC(C(=O)N1CCN(c2ccccc2F)CC1)c1ccccc1 (stereo not shown),-4.55
19,O=C(Nc1cc([N+](=O)[O-])ccc1O)c1cccc([N+](=O)[O-])c1,15.3
20,CS(=O)(=O)N(CC(=O)Nc1ccccc1C(=O)N1CCCC1)c1ccccc1Br,5.81
21,c1ccc2oc(CCc3nc4ccccc4o3)nc2c1,5.89
22,O=C(CCCn1c(=O)c2ccccc2n(CC(=O)N2CCN(c3ccccc3)CC2)c1=O)NCc1ccco1,9.61
23,Cc1oc(-c2ccccc2F)nc1CS(=O)(=O)CC(=O)NCCN(C)C1CCCCC1,0.43
24,CCn1cc(Cl)c(C(=O)NNC(=O)CCn2cc([N+](=O)[O-])cn2)n1,14.8
25,Cc1cc(C)n(CC2CC(=O)N(c3ccccc3)C2=O)n1 (stereo not shown),11.8
26,COc1cc(NC(=S)NCCc2ccc(S(N)(=O)=O)cc2)c(OC)cc1Cl,14.6
27,Cc1cc(=O)c(C(=O)O)nn1-c1ccc(Cl)cc1,12.9
28,CC(=O)Nc1nnc(SCC(=O)NCc2ccc3c(c2)OCO3)s1,12.8

row,Compound,"hERG current change (%, negative = inhibition) at 1uM [%]"
1,Cc1cc(C#Cc2c(-c3ccccc3)n(C)c3ccccc23)ccc1F,1.94
2,CC1CCC2(CC1)NC(=S)N(C(C)(C)C)N2 (stereo not shown),18
3,CC(=O)Nc1ccc(NC(=O)CCOc2ccccc2C)cc1,17.5
4,COc1ccc(S(=O)(=O)N2CCC3(CC2)OCCN3S(=O)(=O)c2ccccc2)cc1OC,10.2
5,CCN1CCN(c2ccc(S(=O)(=O)N3CCCCC3)cc2NC(=O)c2cc3ccccc3o2)CC1,0.811
6,CC(=O)c1cn(CC(=O)Nc2ccccc2Cl)c2ccccc12,11.5
7,Cc1c(Cl)cnc(NC(=O)COC(=O)c2ccc(S(=O)(=O)NCc3ccco3)cc2)c1Cl,3.98
8,Cc1cc(C(=O)COC(=O)c2ccc(Br)o2)c(C)n1Cc1ccco1,10.5
9,CCN(CC)S(=O)(=O)c1ccc(O)c(NC(=O)CN2CCc3ccccc3C2)c1,15.7
10,Cn1c(=O)n(CC(=O)OCc2ccccc2)c(=O)c2c1nc1n2CCCN1C1CCCCC1,7.78
11,COc1ccc(N2CCN(C(=O)c3cc4c(s3)-c3ccccc3OC4)CC2)cc1,15.6
12,CCOC(=O)C(O)(c1ccc(NC(=O)c2ccco2)c(OC)c1)C(F)(F)F (stereo not shown),2.46
13,CCOC(=O)CN1C(=O)C(O)=C(C(C)=O)C1c1ccc([N+](=O)[O-])cc1 (stereo not shown),-6
14,CN(C)CCNC(=O)c1cccc(NS(=O)(=O)c2ccc(Cl)c(Cl)c2)c1,6.25
15,C[n+]1ccc(/C=C/c2c[nH]c3ccccc23)cc1.[I-],5.04
16,COc1ccc(S(N)(=O)=O)cc1C(=O)NCCCN1CCN(c2ccc(C)cc2)CC1,-11.9
17,COc1ccc(CCNC(=O)C(NS(=O)(=O)c2ccc3c(c2)CCN3C(C)=O)C(C)C)cc1OC (stereo not shown),-3.84
18,Cc1ccc(-c2nc(CSc3nc4ccccc4c(=O)n3C)cs2)cc1,10.3
19,COc1ccc(O/C(=N\S(=O)(=O)c2ccccc2)c2ccccc2)cc1,7.56
20,CCOC(=O)N1CCN(C(=O)COC(=O)c2ccc(O)cc2O)CC1,16.8
21,CCc1nnc(NC(=O)CSc2nnc(-c3ccoc3C)n2-c2ccccc2)s1,14.5
22,CCNC(=O)Nn1c(C)nnc1C,8.29
23,CC(C)(C)NC(=O)COc1ccc(S(=O)(=O)N2CCCC2)cc1,10.2
24,CCn1cc(-c2nnnn2-c2ccc(Cl)cc2)c(=O)c2ccccc21,-16.3
25,CN(C)Cc1c[nH]c2ccccc12,12.8
26,Cn1cnc([N+](=O)[O-])c1SCC(O)CN1CCCCC1 (stereo not shown),-3.77
27,CC1(C)C(=O)Nc2ccccc2N1C(=O)COC(=O)COc1ccc(C#N)cc1,2.87

# Reference: article PMC4336329 (PLoS ONE, 2015)
